In one series the test system is NUGC-4 cell line. The series can be described thus: Cytotoxicity (CellTiter-Glo cell viability), NUGC-4. Format: cell-based. The note with it: NUGC4 (CLDN18.2+), gastric cancer. As for the experimental part:
(§1) To measure cell viability in cytotoxicity experiments, the measurement of luminescence using GloMax® Discover was used, and the measurement method was according to the equipment manual.
(§2) Four types of cell lines (MIA PaCa-2˜CLDN18.2, PATU8988S, parental MIA PaCa-2 (CLDN18.2-), SNU601, NUGC-4, and AGS) were prepared. At this time, MIA PaCa-2˜CLDN18.2 and PATU8988S are CLDN18.2-positive pancreatic cancer cell lines. MIA PaCa-2 (CLDN18.2-) is a CLDN18.2-negative pancreatic cancer cell line. SNU601 and NUGC-4 are CLDN18.2-positive gastric cancer cell lines. AGS is a CLDN18.2-negative gastric cancer cell line.
(§3) The prepared cell lines were cultured in DMEM containing 10% FBS and 1% penicillin/streptomycin (MIA PaCa-2˜CLDN18.2, MIA PaCa-2 (CLDN18.2-)), RPMI1640 containing 10% FBS and 1% penicillin/streptomycin (SNU601, NUGC-4, and AGS), and DMEM containing 5% FBS, 5% horse serum, 1% penicillin/streptomycin, and […] L-glutamine (PATU8988S) in an incubator under the conditions of 37° C. and 5% CO2. […]
(§4) Changes in cell viability according to treatment of each test substance were measured using the same method as the CellTiter-Glo manual.
(§5) The measured results were used for a regression analysis in GraphPad PRISM® 9.0 software to calculate IC50. The cytotoxicity of each test substance was evaluated based on the calculated values.

In a further series the test system is PATU8988S cell line. Nature of the series: Cytotoxicity (CellTiter-Glo cell viability), PATU8988S. Format: cell-based. Particulars: PATU8988S (CLDN18.2+), pancreatic cancer. As for the experimental part: as §1, §2, §3, §4, §5
For orientation: In ATP-based viability assays light output follows the ATP content of the culture.

Series [1] deals with MIA PaCa-2˜CLDN18.2 cell line. The series can be described thus: Cytotoxicity (CellTiter-Glo cell viability), MIA PaCa-2˜CLDN18.2. Format: cell-based. The note with it: pancreatic cancer. On the procedure: as §1, §2, §3, §4, §5
Series [2] in a line: Pharmacokinetics after single intravenous administration. It is filed as in vivo. Particulars: rats. On the procedure:
Centrifugation in the pretreatment process was performed under the conditions of 13,000 rpm and 4° C. for 10 minutes.
After a single administration of ADC-A at doses of 1 and 3 mg/kg to rats (purchased from SAMTAKO Bio Korea CO., LTD.) through the tail vein, blood was collected for a certain period of time and analyzed to compare and evaluate the pharmacokinetic profile. The supernatant was obtained from the plasma using a centrifuge, and the concentration of ADC-A in the plasma was analyzed using the ELISA method. Parameters were calculated by performing a pharmacokinetic analysis in a non-compartmental manner using Phoenix® WinNonlin® software.

B1: Antibody-A: anti-claudin18.2 antibody with heavy chain of SEQ ID NO: 16 and light chain of SEQ ID NO: 17 (antibody)
heavy: QVQLVESGGGVVQPGRSLRLSCAASGFSLTTYGVHWVRQAPGKGLEWVAVIWAGGSTNYNSALMSRFTISRDNSKNTLYLQMNSLRAEDTAVYYCARAAYYGNGLDYWGQGTMVTVSS[… human IgG1 constant region …]
light: DIVMTQSPLSLPVTPGEPASISCKSSQTLLNSGNQKNYLTWYLQKPGQSPQLLIYWASTGESGVPDRFSGSGSGTDFTLKISRVEAEDVGVYYCQNAYFYPFTFGGGTKVEIKRTVAAPSVFIFPPSDEQLKSGTASVVCLLNNFYPREAKVQWKVDNALQSGNSQESVTEQDSKDSTYSLSSTLTLSKADYEKHKVYACEVTHQGLSSPVTKSFNRGEC
modifications: heavy chain of Claudin18.2 antibody; light chain of Claudin18.2 antibody
Usually IC50 stands for the point on the concentration scale where inhibition reaches its midpoint. Regarding B1, the IC50 (with NUGC-4 cell line; in the series on PATU8988S cell line; in series [1]) was more than 66.7 nM in each case.

B2: ADC-A (conjugate)
heavy: QVQLVESGGGVVQPGRSLRLSCAASGFSLTTYGVHWVRQAPGKGLEWVAVIWAGGSTNYNSALMSRFTISRDNSKNTLYLQMNSLRAEDTAVYYCARAAYYGNGLDYWGQGTMVTVSS[… human IgG1 constant region …]
light: DIVMTQSPLSLPVTPGEPASISCKSSQTLLNSGNQKNYLTWYLQKPGQSPQLLIYWASTGESGVPDRFSGSGSGTDFTLKISRVEAEDVGVYYCQNAYFYPFTFGGGTKVEIKRTVAAPSVFIFPPSDEQLKSGTASVVCLLNNFYPREAKVQWKVDNALQSGNSQESVTEQDSKDSTYSLSSTLTLSKADYEKHKVYACEVTHQGLSSPVTKSFNRGEC
Consider B2, for which, in series [2] (single intravenous 1 mg/kg), the “half-life (t1/2), total ADC” value came out at 125 h; the “half-life (t1/2), total antibodies (total Ab)” value is 108 h; the “total clearance, total ADC” value was determined as 3.0 mL/h/kg; the “total clearance, total antibodies (total Ab)” value was determined as 2.9 mL/h/kg. Besides, in series [2] (single intravenous 3 mg/kg), the “half-life (t1/2), total ADC” value is 118 h; the “half-life (t1/2), total antibodies (total Ab)” value came to 113 h; the “total clearance, total ADC” value stood at 2.5 mL/h/kg; the “total clearance, total antibodies (total Ab)” value came to 2.8 mL/h/kg.

Values taken from US20260151501A1, “ANTIBODY-DRUG CONJUGATE COMPRISING ANTI-CLAUDIN-18.2 ANTIBODY, AND THERAPEUTIC USE THEREOF FOR CANCER” (ABTIS CO., LTD., priority 2022, published 2026).
